Measured values from patent US20210340205A1 (Novartis, published 2021).

Biological target: T1, Human GFRAL(ECD)-His (human, UniProt Q6UXV0 20-351)
T1 construct: also called full length GFRAL(ECD)
T1 sequence: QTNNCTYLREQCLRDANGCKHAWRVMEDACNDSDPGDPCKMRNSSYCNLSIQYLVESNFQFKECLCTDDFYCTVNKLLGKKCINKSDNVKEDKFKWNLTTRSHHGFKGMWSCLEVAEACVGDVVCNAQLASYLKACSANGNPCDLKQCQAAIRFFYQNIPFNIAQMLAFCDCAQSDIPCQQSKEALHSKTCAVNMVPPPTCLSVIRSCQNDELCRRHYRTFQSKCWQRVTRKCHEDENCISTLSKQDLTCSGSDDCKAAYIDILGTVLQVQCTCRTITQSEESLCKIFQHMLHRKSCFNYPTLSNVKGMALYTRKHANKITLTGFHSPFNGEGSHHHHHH
Assay: MSD plate assay, cRET(ECD)-Fc coated; biotinylated anti-6xHis mAb and streptavidin sulfo-tag
Protocol: Methods: To generate soluble GDF15/GFRAL complexes in vitro, recombinant GFRAL(D2D3)-App, GFRAL(ECD)-His, and GFRAL(ECD)-Fc proteins purified in Example 1 were freshly mixed with equimolar amounts of biotinylated His-GDF15 (1250 pM) in DPBS supplemented with 50 μM CaCl₂. The mixtures were incubated at room temperature for 60 min to allow complex formation. The complex made was stable at 4° C. and was used directly for in vitro binding assays against cRET(ECD)-Fc coated on plastic plates without further purification. Three different GDF15/GFRAL ECD complexes were prepared, including His-GDF15(biotin)/GFRAL(D2D3)-App, His-GDF15(biotin)/GFRAL (ECD)-His, and His-GDF15(biotin)/GFRAL (ECD)-Fc in the same manner. […] His-GDF15(L294R) was mixed with GFRAL(ECD)-His to generate a negative control for GDF15/GFRAL/cRET interaction. […]
Methods: Mixtures of purified biotinylated His-GDF15 and GFRAL(ECD)-His or His-GDF15(L294R) and GFRAL(ECD)-His were prepared as described in Example 3. […] Binding of proteins to plates coated with cRET(ECD)-Fc was detected using biotinylated mouse anti-6×His tag monoclonal antibody followed by streptavidin sulfo-tag, and otherwise by methods described in Example 3.

B1: Human cRET(ECD)-Fc (Fc fusion)
chain: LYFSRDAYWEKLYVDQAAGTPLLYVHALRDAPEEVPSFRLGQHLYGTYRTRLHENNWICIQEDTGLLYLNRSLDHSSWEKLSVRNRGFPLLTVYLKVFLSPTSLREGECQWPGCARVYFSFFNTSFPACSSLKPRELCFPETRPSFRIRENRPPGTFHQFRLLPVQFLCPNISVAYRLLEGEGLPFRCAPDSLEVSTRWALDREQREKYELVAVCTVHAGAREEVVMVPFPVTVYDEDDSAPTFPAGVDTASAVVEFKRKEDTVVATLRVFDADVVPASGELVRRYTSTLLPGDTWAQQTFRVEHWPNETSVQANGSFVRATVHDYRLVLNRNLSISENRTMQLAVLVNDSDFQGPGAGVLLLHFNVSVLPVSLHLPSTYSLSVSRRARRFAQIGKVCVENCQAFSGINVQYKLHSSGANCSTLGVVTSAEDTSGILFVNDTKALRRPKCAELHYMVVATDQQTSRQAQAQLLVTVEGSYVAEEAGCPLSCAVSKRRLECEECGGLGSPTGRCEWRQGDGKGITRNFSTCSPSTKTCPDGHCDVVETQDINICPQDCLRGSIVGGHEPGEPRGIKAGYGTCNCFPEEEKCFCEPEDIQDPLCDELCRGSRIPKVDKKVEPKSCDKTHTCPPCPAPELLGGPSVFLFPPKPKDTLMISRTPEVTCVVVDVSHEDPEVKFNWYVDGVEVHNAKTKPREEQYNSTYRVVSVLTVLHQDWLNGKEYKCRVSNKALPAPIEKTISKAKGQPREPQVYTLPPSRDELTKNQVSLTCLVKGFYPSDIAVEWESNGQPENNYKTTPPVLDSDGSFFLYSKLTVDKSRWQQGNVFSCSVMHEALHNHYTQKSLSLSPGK
notes: also called RET-Fc
Q: Does B1 bind?
A: no binding (tested: 0-5 log 10 pM)
